# The other results are listed elsewhere or left out.
# B1: SSP1 (Sclerotinia sclerotiorum), XP_001584968 (protein)
# chain: MGSSHHHHHHSSGLVPRGSHMSLLTTELACTSAPDQVLHLFFQDGQNILEARSPDGGNVWTTQDTIIAKDGDYNGSSMTCYYVDKDANFDNQPSIHLLYMNKDKQLTEKVKRMKGDNPIWEDAKVPDEVRKGPEQYSKLTSGSFNQGTGWNPNGSQWAYFSASKDGKMGIVEIRRTPKDPWHTETILEEKWGDELPGTALACVIGNGKIRVFLQHHDYSIILYENQNNTWHDRGTFIPKDKVQATTPLACTMTKDGSVHLFYVSKSNKIIHCTDGKKEEELINFFPGSKLGATSVENKITLFFRNLNPVNEVGTLENENGSWKHGTTVIPA
# Experiments:
# Assay in all cases: glycan array binding signal (z-score within array); higher = stronger binding
# Conditions in all cases: glycan notation: IUPAC condensed, linker removed
# [1] = molecular target: Fuc(a1-2)[GalNAc(b1-3)]Gal
# Procedure, shortened: (§1)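 Negative Z-scores can be read as non-binding. The Z-score is calculated within each array and then averaged across arrays of one protein sequence at different concentrations or buffers and across linkers. Arrays, 3228 in all, were curated from the Consortium for Functional Glycomics database and kept only where the protein sequence was available.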
# Fuc(a1-3)GlcNAc = molecular target: Fuc(a1-3)GlcNAc
# Procedure, shortened: as §1
# [2] = molecular target: Fuc(a1-3)[Gal(b1-4)]Glc6S
# Procedure, shortened: as §1
# [3] = molecular target: Fuc(a1-3)[Gal(b1-4)]GlcNAc
# Procedure, shortened: as §1
# [4] = molecular target: Fuc(a1-3)[Gal(b1-4)]GlcNAc(b1-2)Man
# Procedure, shortened: as §1
# [5] = molecular target: Fuc(a1-3)[Gal(b1-4)]GlcNAc(b1-2)Man(a1-3)[Fuc(a1-3)[Gal(b1-4)]GlcNAc(b1-2)Man(a1-6)]Man(b1-4)GlcNAc(b1-4)GlcNAc
# Procedure, shortened: as §1
# [6] = molecular target: Fuc(a1-3)[Gal(b1-4)]GlcNAc(b1-2)Man(a1-3)[Fuc(a1-3)[Gal(b1-4)]GlcNAc(b1-2)Man(a1-6)]Man(b1-4)GlcNAc(b1-4)[Fuc(a1-6)]GlcNAc
# Procedure, shortened: as §1
# [7] = molecular target: Fuc(a1-3)[Gal(b1-4)]GlcNAc(b1-3)Gal(b1-3)[Fuc(a1-4)]GlcNAc
# Procedure, shortened: as §1
# [8] = molecular target: Fuc(a1-3)[Gal(b1-4)]GlcNAc(b1-3)Gal(b1-4)[Fuc(a1-3)]GlcNAc
# Procedure, shortened: as §1
# [9] = molecular target: Fuc(a1-3)[Gal(b1-4)]GlcNAc(b1-3)Gal(b1-4)[Fuc(a1-3)]GlcNAc(b1-3)Gal(b1-4)[Fuc(a1-3)]GlcNAc
# Procedure, shortened: as §1
# [10] = molecular target: Fuc(a1-3)[Gal(b1-4)]GlcNAc(b1-3)GalNAc
# Procedure, shortened: as §1
# [11] = molecular target: Fuc(a1-3)[Gal(b1-4)]GlcNAc(b1-6)GalNAc
# Procedure, shortened: as §1
# [12] = molecular target: Fuc(a1-3)[Gal(b1-4)]GlcNAc(b1-6)[Gal(b1-3)GlcNAc(b1-3)]Gal(b1-4)Glc
# Procedure, shortened: as §1
# [13] = molecular target: Fuc(a1-3)[Gal(b1-4)]GlcNAc6S
# Procedure, shortened: as §1
# [14] = molecular target: Fuc(a1-3)[Gal3S(b1-4)]Glc
# Procedure, shortened: as §1
# [15] = molecular target: Fuc(a1-3)[Gal3S(b1-4)]GlcNAc
# Procedure, shortened: as §1
# [16] = molecular target: Fuc(a1-3)[Gal3S(b1-4)]GlcNAc6S
# Procedure, shortened: as §1
# [17] = molecular target: Fuc(a1-3)[GalNAc(b1-4)]GlcNAc
# Procedure, shortened: as §1
# [18] = molecular target: Fuc(a1-3)[GalNAc(b1-4)]GlcNAc6S
# Procedure, shortened: as §1
# Fuc(a1-4)GlcNAc = molecular target: Fuc(a1-4)GlcNAc
# Procedure, shortened: as §1
# Fuc(b1-3)GlcNAc = molecular target: Fuc(b1-3)GlcNAc
# Procedure, shortened: as §1
# Gal(a1-2)Gal = molecular target: Gal(a1-2)Gal
# Procedure, shortened: as §1
# Gal(a1-3)Gal = molecular target: Gal(a1-3)Gal
# Procedure, shortened: as §1
# Gal(a1-3)Gal(b1-3)GlcNAc = molecular target: Gal(a1-3)Gal(b1-3)GlcNAc
# Procedure, shortened: as §1
# [19] = molecular target: Gal(a1-3)Gal(b1-3)GlcNAc(b1-2)Man
# Procedure, shortened: as §1
# [20] = molecular target: Gal(a1-3)Gal(b1-3)GlcNAc(b1-2)Man(a1-3)[Gal(a1-3)Gal(b1-3)GlcNAc(b1-2)Man(a1-6)]Man(b1-4)GlcNAc(b1-4)GlcNAc
# Procedure, shortened: as §1
# [21] = molecular target: Gal(a1-3)Gal(b1-3)GlcNAc(b1-3)GalNAc
# Procedure, shortened: as §1
# [22] = molecular target: Gal(a1-3)Gal(b1-3)GlcNAc(b1-6)GalNAc
# Procedure, shortened: as §1
# [23] = molecular target: Gal(a1-3)Gal(b1-3)[Fuc(a1-4)]GlcNAc(b1-2)Man(a1-3)[Gal(a1-3)Gal(b1-3)[Fuc(a1-4)]GlcNAc(b1-2)Man(a1-6)]Man(b1-4)GlcNAc(b1-4)GlcNAc
# Procedure, shortened: as §1
# Gal(a1-3)Gal(b1-4)Glc = molecular target: Gal(a1-3)Gal(b1-4)Glc
# Procedure, shortened: as §1
# Gal(a1-3)Gal(b1-4)GlcNAc = molecular target: Gal(a1-3)Gal(b1-4)GlcNAc
# Procedure, shortened: as §1
# [24] = molecular target: Gal(a1-3)Gal(b1-4)GlcNAc(b1-2)Man
# Procedure, shortened: as §1
# [25] = molecular target: Gal(a1-3)Gal(b1-4)GlcNAc(b1-2)Man(a1-3)[Gal(a1-3)Gal(b1-4)GlcNAc(b1-2)Man(a1-6)]Man(b1-4)GlcNAc(b1-4)GlcNAc
# Procedure, shortened: as §1
# [26] = molecular target: Gal(a1-3)Gal(b1-4)GlcNAc(b1-3)GalNAc
# Procedure, shortened: as §1
# [27] = molecular target: Gal(a1-3)Gal(b1-4)GlcNAc(b1-6)GalNAc
# Procedure, shortened: as §1
# [28] = molecular target: Gal(a1-3)Gal(b1-4)[Fuc(a1-3)]GlcNAc
# Procedure, shortened: as §1
# [29] = molecular target: Gal(a1-3)Gal(b1-4)[Fuc(a1-3)]GlcNAc(b1-2)Man(a1-3)[Gal(a1-3)Gal(b1-4)[Fuc(a1-3)]GlcNAc(b1-2)Man(a1-6)]Man(b1-4)GlcNAc(b1-4)GlcNAc
# Procedure, shortened: as §1
binder,measurement,setting,value
B1,glycan array binding signal (z-score),[1],-0.081
same,glycan array binding signal (z-score),Fuc(a1-3)GlcNAc,0.102
same,glycan array binding signal (z-score),[2],0.452
same,glycan array binding signal (z-score),[3],0.178
same,glycan array binding signal (z-score),[4],0.167
same,glycan array binding signal (z-score),[5],-0.003
same,glycan array binding signal (z-score),[6],-0.461
same,glycan array binding signal (z-score),[7],-0.517
same,glycan array binding signal (z-score),[8],-0.07
same,glycan array binding signal (z-score),[9],-0.083
same,glycan array binding signal (z-score),[10],0.264
same,glycan array binding signal (z-score),[11],-0.115
same,glycan array binding signal (z-score),[12],-0.067
same,glycan array binding signal (z-score),[13],0.517
same,glycan array binding signal (z-score),[14],0.066
same,glycan array binding signal (z-score),[15],0.719
same,glycan array binding signal (z-score),[16],-0.18
same,glycan array binding signal (z-score),[17],0.762
same,glycan array binding signal (z-score),[18],-0.12
same,glycan array binding signal (z-score),Fuc(a1-4)GlcNAc,0.034
same,glycan array binding signal (z-score),Fuc(b1-3)GlcNAc,-0.277
same,glycan array binding signal (z-score),Gal(a1-2)Gal,0.047
same,glycan array binding signal (z-score),Gal(a1-3)Gal,-0.476
same,glycan array binding signal (z-score),Gal(a1-3)Gal(b1-3)GlcNAc,2.88
same,glycan array binding signal (z-score),[19],-0.606
same,glycan array binding signal (z-score),[20],0.327
same,glycan array binding signal (z-score),[21],-0.016
same,glycan array binding signal (z-score),[22],0.819
same,glycan array binding signal (z-score),[23],0.141
same,glycan array binding signal (z-score),Gal(a1-3)Gal(b1-4)Glc,-0.346
same,glycan array binding signal (z-score),Gal(a1-3)Gal(b1-4)GlcNAc,-0.316
same,glycan array binding signal (z-score),[24],-0.137
same,glycan array binding signal (z-score),[25],-0.097
same,glycan array binding signal (z-score),[26],-0.142
same,glycan array binding signal (z-score),[27],-0.258
same,glycan array binding signal (z-score),[28],-0.053
same,glycan array binding signal (z-score),[29],-0.315
